Holding throughout (experiment): cell viability relative to vehicle (% of vehicle); basal-like triple-negative breast cancer lines; higher = less cytotoxic
What all share (conditions): 10 µM; 72 h

In test [1] the test system is HCC-1143.
The subject of test [2] is HCC-1187.
For test [3], the system named is MDA-468.
Test [4] concerns SUM-149.

Structures are written as SMILES. The list shows a part of the results. Most values come without repeats; read them as rough.

The text below walks through data of the supplement of paper PMC8512760.
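Further: stably firefly luciferase-GFP labeled cells in 96-well plates, viability read as luciferase photon flux after d-luciferin addition, treated wells normalized to vehicle wells, single-dose high-throughput screen.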

In the case of `CC(=O)OCC(=O)[C@@]12N=C(C)O[C@@H]1C[C@H]1[C@@H]3CCC4=CC(=O)C=C[C@]4(C)[C@H]3[C@@H](O)C[C@@]12C` [Deflazacort], the cell viability in test [1] was 77.4; in test [2] it was 80.3; in test [3] it was 167; in test [4], 137.

For `CNCC(O)C(O)C(O)C(O)CO` (stereo not drawn) [Meglumine], the cell viability in test [1] turned out to be 75.9; in test [2], 108; in test [3], 108; in test [4], 95.8.

In the case of `CC(=CC(=O)OCCCCCCCCC(=O)O)CC1OCC(CC2OC2C(C)C(C)O)C(O)C1O` (stereo not drawn) [Mupirocin], the cell viability is 75.9 in test [1], 92.7 in test [2], 107 in test [3] and 106 in test [4].

In the case of `COC(=O)C1=C(C)NC(C)=C(C(=O)OC)C1c1ccccc1[N+](=O)[O-]` [Nifedipine], the cell viability was determined as 78.1 in test [1], 83.8 in test [2], 96.1 in test [3] and 128 in test [4].

With `O=C(CCCN1CCN(c2ccccn2)CC1)c1ccc(F)cc1` [Azaperone], the cell viability in test [1] amounted to 107; in test [2], 104; in test [3] it was 114; in test [4], 151.

For `COc1ccc2c(c1OC)C(=O)OC2C1c2c(cc3c(c2OC)OCO3)CCN1C.Cl` (stereo not drawn) [Noscapine HCl], the cell viability in test [1] was found to be 84.3; in test [2] it was 103; in test [3], 113; in test [4], 98.3.

As to `CN(C)c1cc(NC(=O)CNC(C)(C)C)c(O)c2c1CC1CC3C(N(C)C)C(=O)C(C(N)=O)=C(O)C3(O)C(=O)C1=C2O` (stereo not drawn) [Tigecycline], the cell viability in test [1] was 77; in test [2], 112; in test [3] it was 82.6; in test [4], 115.

For the compound `CNCC(O)c1ccc(O)c(O)c1.Cl` (stereo not drawn) [Epinephrine HCl], the cell viability turned out to be 83.1 in test [1], 80.8 in test [2], 191 in test [3] and 108 in test [4].

In the case of `CCCCNc1cc(C(=O)O)cc(S(N)(=O)=O)c1Oc1ccccc1` [Bumetanide], the cell viability in test [1] was 97.7; in test [2], 97.9; in test [3] it was 97.5; in test [4], 101.

Take `CN1CCC(OC(c2ccccc2)c2ccccc2)CC1.Cl` [Diphenylpyraline HCl]: the cell viability in test [1] came out at 80; in test [2], 87.2; in test [3] it was 103; in test [4] it was 88.9.

For `Cl.O=C1NCC2(CCN(CCc3ccccc3)CC2)O1` [Fenspiride HCl], the cell viability worked out at 70 in test [1], 87.9 in test [2], 103 in test [3] and 108 in test [4].

Take `CC12CCC3c4ccc(O)cc4CCC3C1CCC2OC(=O)CCC1CCCC1` (stereo not drawn) [Estradiol Cypionate]: the cell viability in test [1] stood at 79.2; in test [2], 106; in test [3], 95.2; in test [4] it was 91.8.

Turning to `CS(=O)(=O)N1CCN(Cc2cc3nc(-c4cccc5[nH]ncc45)nc(N4CCOCC4)c3s2)CC1`, the cell viability in test [1] came to 95.1; in test [2] it was 70.8; in test [3] it was 79.4; in test [4], 117.

For `C=CCc1cc(OC)c(O)c(C(=O)NCCO)c1` [Alibendol], the cell viability in test [1] was found to be 78.5; in test [2] it was 95.3; in test [3], 123; in test [4] it was 129.

As to `COc1ccc(CC2c3cc(OC)c(OC)cc3CC[N+]2(C)CCC(=O)OCCCCCOC(=O)CC[N+]2(C)CCc3cc(OC)c(OC)cc3C2Cc2ccc(OC)c(OC)c2)cc1OC.O=S(=O)([O-])c1ccccc1.O=S(=O)([O-])c1ccccc1` (stereo not drawn) [Cisatracurium Besylate], the cell viability in test [1] was 80.9; in test [2], 86.6; in test [3] it was 99.5; in test [4], 99.9.

Turning to `OC(Cn1cncn1)(Cn1cncn1)c1ccc(F)cc1F` [Fluconazole hydrate], the cell viability in test [1] was 104; in test [2], 95.8; in test [3], 117; in test [4], 105.

As for `CN(C)CCC=C1c2ccccc2COc2ccc(CC(=O)O)cc21.Cl` [Olopatadine HCl], the cell viability in test [1] was determined as 89.9; in test [2], 94; in test [3], 99; in test [4], 123.

As to `CC(C)CC(NC(=O)CNC(=O)c1cc(Cl)ccc1Cl)B(O)O` (stereo not drawn), the cell viability stood at 17.3 in test [1], 8.86 in test [2], 13.7 in test [3] and 28.3 in test [4].

Take `CCCCC1C(=O)N(c2ccccc2)N(c2ccccc2)C1=O` [Phenylbutazone]: the cell viability in test [1] worked out at 90.8; in test [2] it was 97.1; in test [3] it was 110; in test [4] it was 113.

With `CCCN(CCC)S(=O)(=O)c1ccc(C(=O)O)cc1` [Probenecid], the cell viability in test [1] turned out to be 80.9; in test [2], 81.1; in test [3], 95.4; in test [4], 107.

Regarding `Cl.Clc1ccc2nsnc2c1NC1=NCCN1` [Tizanidine HCl], the cell viability in test [1] was 81.1; in test [2], 94.5; in test [3], 98.9; in test [4], 106.

Consider `CNS(=O)(=O)Cc1ccc2[nH]cc(CCN(C)C)c2c1` [Sumatriptan], for which the cell viability came to 68.3 in test [1], 87 in test [2], 112 in test [3] and 109 in test [4].
